Where a chain is given by its changes, count along the chain named. In names and notes the source's numbering stands. These are yes or no findings as the source states them, for the method shown. For some of these results: Binding seen in cells or lysates may run through a third protein. Some results given as binding are weak or reduced against the parent protein; the word gives no strength. For some of these results: Sequences can lack the tags named with a protein.
Key:
[1] = target: VIN3, full length, tagged (GFP-VIN3) (Arabidopsis thaliana) (UniProt Q9FIE3); experiment: co-IP; co-overexpression in HEK293T cells; lysis in 20 mM Tris pH 7.4, 200 mM NaCl, 10% glycerol, 0.2% Triton X-100; GFP-tagged protein precipitated with GFP-trap, 90 min at 4°C; Western blot
[2] = target: VEL1, full length, tagged (GFP-VEL1) (Arabidopsis thaliana) (UniProt Q9SUM4); experiment: as above
[3] = target: VIN3VEL, wild type, Lip tag cleaved off by TEV protease (EM) (Arabidopsis thaliana) (UniProt Q9FIE3); experiment: negative-stain electron microscopy; purified VIN3VEL (∼35 μM) or VEL1VEL (∼138 μM) on carbon grids, 2% uranyl acetate; self-assembly into fibers or lattices; both purified
[4] = target: VRN5, full length, tagged (GFP-VRN5) (Arabidopsis thaliana) (UniProt Q9LHF5); experiment: co-IP; co-overexpression in HEK293T cells; lysis in 20 mM Tris pH 7.4, 200 mM NaCl, 10% glycerol, 0.2% Triton X-100; GFP-tagged protein precipitated with GFP-trap, 90 min at 4°C; Western blot
[5] = target: Lip-VIN3VEL (residues 500–603) RR>AD (R554A R556D) (Arabidopsis thaliana) (UniProt Q9FIE3); experiment: SEC-MALS; Superdex200 10/300 GL in PBS with 1 mM DTT; increasing protein concentrations (2 mg/mL unless stated otherwise); self-association; both purified
[6] = target: Lip-VEL1VEL (residues 589–692) RK>AD (R643A K645D) (Arabidopsis thaliana) (UniProt Q9SUM4); experiment: as above
[7] = target: Lip-VIN3VEL (residues 500–603) I575D (Arabidopsis thaliana) (UniProt Q9FIE3); experiment: as above
[8] = target: VEL1VEL (residues 589–692) RK>AD, as examined for floaters and fibers (Arabidopsis thaliana) (UniProt Q9SUM4); experiment: negative-stain electron microscopy; purified VIN3VEL (∼35 μM) or VEL1VEL (∼138 μM) on carbon grids, 2% uranyl acetate; self-assembly into fibers or lattices; both purified

**Q.** For “VIN3, full length, tagged (GFP-VIN3) (from UniProt Q9FIE3 1-620)”, which binding [1] is on record?
**A.** binds

B1: VEL1, full length, tagged (GFP-VEL1) (protein, UniProt Q9SUM4 1-714)
chain: MDSSLDGAAGDSSKCSEMSVDEKRQLVYELSKQSHLAAEVLQAWSRQEILQILCAEMGKERKYTGLTKVKIIETLLKIVSEKNSGECEGKKRDSDCLPIQRNTKRQRKVDNPSRYVIPATNIVTSNNASGSCSSVNTKGESTTIYCKNLACRAVLRQEDSFCRRCSCCICRKYDDNKDPSLWLTCSSDPPFEGESCGFSCHLECAFNTEKSGLGKDKQSEGCCFYCVSCGKANSLLECWKKQLTIAKETRRVEVLCYRLFLVQKLLKSSTKYRNLCEVVDEAVKTLEADVGPLTGLPMKMGRGIVNRLHSGPDVQKLCSSALESLETIATTPPDVAALPSPRSSKMQQDCSYVLSNEISADTATTGSTKIRFEDVNATSLTVVLASNEIPSPPNIVHYSIWHRKVPEKDYPEKSTCTLFIPNTRFVVSGLAPASEYCFKVVSYSGTREMGVDEINVLTRSAEEGANCSSAVERSVSPLTNCSTLSSNPSSVEAESNNDYIVPKKPSSKNEDNNSPSVDESAAKRMKRTTDSDIVQIEKDVEQIVLLDDEEQEAVLDKTESETPVVVTTKSLVGNRNSSDASLPITPFRSDEIKNRQARIEISMKDNCNNGDHSANGGTESGLEHCVKIIRQLECSGHIDKNFRQKFLTWYSLRATSQEIRVVKIFIDTFIDDPMALAEQLIDTFDDRVSIKRSAVGGSGASAVVPSGFCMKLWH
**Q.** B1 was tested. Which binding [2] did it give?
**A.** binds

**Q.** What about the binding [1] of the same molecule?
**A.** binds

B2: VIN3VEL, wild type, Lip tag cleaved off by TEV protease (EM) (domain or fragment, UniProt Q9FIE3 529-603)
chain: GDKDLGHIVKTIRCLEEEGHIDKSFRERFLTWYSLRATHREVRVVKIFVETFMEDLSSLGQQLVDTFSESILSKR
**Q.** B2 was tested. Which binding [3] did it give?
**A.** binds

B3: VRN5, full length, tagged (GFP-VRN5) (protein, UniProt Q9LHF5 1-602)
chain: MDSSSTKSKISHSRKTNKKSNKKHESNGKQQQQQDVDGGGGCLRSSWICKNASCRANVPKEDSFCKRCSCCVCHNFDENKDPSLWLVCEPEKSDDVEFCGLSCHIECAFREVKVGVIALGNLMKLDGCFCCYSCGKVSQILGCWKKQLVAAKEARRRDGLCYRIDLGYRLLNGTSRFSELHEIVRAAKSMLEDEVGPLDGPTARTDRGIVSRLPVAANVQELCTSAIKKAGELSANAGRDLVPAACRFHFEDIAPKQVTLRLIELPSAVEYDVKGYKLWYFKKGEMPEDDLFVDCSRTERRMVISDLEPCTEYTFRVVSYTEAGIFGHSNAMCFTKSVEILKPVDGKEKRTIDLVGNAQPSDREEKSSISSRFQIGQLGKYVQLAEAQEEGLLEAFYNVDTEKICEPPEEELPPRRPHGFDLNVVSVPDLNEEFTPPDSSGGEDNGVPLNSLAEADGGDHDDNCDDAVSNGRRKNNNDCLVISDGSGDDTGFDFLMTRKRKAISDSNDSENHECDSSSIDDTLEKCVKVIRWLEREGHIKTTFRVRFLTWFSMSSTAQEQSVVSTFVQTLEDDPGSLAGQLVDAFTDVVSTKRPNNGVMTSH
**Q.** B3 was tested. Which binding [1] did it give?
**A.** binds

**Q.** What about the binding [4] of the same molecule?
**A.** binds

B4: Lip-VIN3VEL (residues 500–603) RR>AD (R554A R556D) (domain or fragment, UniProt Q9FIE3 500-603)
chain: GKQGGNKRFKSRTVSLNEKPEINNAANGVGDKDLGHIVKTIRCLEEEGHIDKSFAEDFLTWYSLRATHREVRVVKIFVETFMEDLSSLGQQLVDTFSESILSKR
**Q.** B4 was tested. Which binding [5] did it give?
**A.** no binding

B5: Lip-VEL1VEL (residues 589–692) RK>AD (R643A K645D) (domain or fragment, UniProt Q9SUM4 589-692)
chain: SDEIKNRQARIEISMKDNCNNGDHSANGGTESGLEHCVKIIRQLECSGHIDKNFAQDFLTWYSLRATSQEIRVVKIFIDTFIDDPMALAEQLIDTFDDRVSIKR
**Q.** B5 was tested. Which binding [6] did it give?
**A.** no binding

B6: Lip-VIN3VEL (residues 500–603) I575D (domain or fragment, UniProt Q9FIE3 500-603)
chain: B4 chain with A55R, D57R, I76D
**Q.** B6 was tested. Which binding [7] did it give?
**A.** no binding

B7: VEL1VEL (residues 589–692) RK>AD, as examined for floaters and fibers (domain or fragment, UniProt Q9SUM4 589-692)
chain: B5 chain
**Q.** For B7, which binding [8] is on record?
**A.** no binding

— article PMC7614096, “Head-to-tail polymerization by VEL proteins underpins cold-induced Polycomb silencing in flowering control” (Cell Reports, 2022)
